In PubChem BioAssay AID463173 (ICCB-Longwood Screening Facility, Harvard Medical School, 2010) one finds survival data, which are given here for 88 compounds.

Hit rate of the full screen: of about 52,000 compounds, about 4,300 (8.3%) were called active. Cut-off read from the data, not from the text of the source: active = survival mostly below about 52% (no sharp cut-off); inactive = mostly above about 56%. This is one part of the list.

The subject of this assay is DeltatarO mutant. Kind of assay: S. aureus survival, RN4220 and DeltatarO strains – OD600, teichoic acid synthesis inhibitors, primary screen (AID 463173). The conditions noted are these: S. aureus RN4220 wild type/DeltatarO growth, OD600, 18 h, active compounds read low, screened at 18.75 µg/mL (by protocol).
As to `CN(C)c1ccc(NC(=O)CC(NCc2cccnc2)C(=O)O)cc1` (stereo not drawn), the survival was inactive: 76%. As to `COc1ccc(S(=O)(=O)NC(C)(C)CO)cc1-c1nnc2c3ccccc3c(C)nn12`, the survival is inactive: 96%. Regarding `O=c1c(N2CCN(c3ccc(F)cc3)CC2)csc2ccc(F)cc12`, the survival was inactive: 94%. In the case of `CCOc1ccc(NC(=O)CSc2nc3ccccc3nc2N2CCOCC2)cc1` it was inactive: 87%; in that of `COc1ccc(CNC(=O)c2cc3cccc4c3n2CC(C)S4)cc1` (stereo not drawn), inactive: 83%; in that of `CCCn1c(=O)c2sccc2n2c(CCCC(=O)N3CCN(c4ccc(OC)cc4)CC3)nnc12`, inactive: 90%. For `CC(C)CC(=O)Nc1cccc(-c2cn3cccnc3n2)c1`, the survival was inactive: 83%. `CC1CCN(S(=O)(=O)c2ccc3nc(Nc4cccc(F)c4)ccc3c2)CC1`: the survival was inactive: 83%.

Regarding `CC(C)CNC(=O)C(=O)Nc1c2c(nn1-c1ccc(Cl)cc1)CSC2`, the survival was inactive: 109%. The same measure for `CC(=O)c1ccc(NC(=O)CSc2nccn2C2CCCC2)cc1`: inactive: 94%; for `Cc1cccc(N2CCN(c3ccc4cc(S(=O)(=O)N5CCC(C)CC5)ccc4n3)CC2C)c1` (stereo not drawn): inactive: 120%; for `CCOC(=O)CN1CCC(n2nnc3cc(C(F)(F)F)ccc32)CC1`: inactive: 104%. In the case of `CC(=O)c1ccc(NC(=O)CSc2nnc3c(n2)[nH]c2ccccc23)cc1`, the survival was inactive: 119%. Consider `COc1ccc(CNC(=O)c2cc(-c3ccc(OC)c(OC)c3)nc3n[nH]c(-c4ccc(C)cc4)c23)cc1`, for which the survival is inactive: 67%.

As to `O=C(Nc1ccc(F)cc1F)c1ccc(-n2cnc3cccnc32)cc1`, the survival is inactive: 77%. Take `CCOCCCNC(=O)CN1C(=O)COc2ccc(S(=O)(=O)N3CCOCC3)cc21`: the survival was inactive: 107%. Regarding `COc1ccc(-c2cc(C(F)(F)F)nc(SCCC(=O)Nc3ccc(F)cc3F)n2)cc1`, the survival is inactive: 58%. For the compound `Cc1ccc(CNC(=O)CCc2c(C)c3cc4c(C)coc4cc3oc2=O)cc1`, the survival was inactive: 84%.

Take `COC(=O)c1c(SCC(=O)Nc2ccccc2C(F)(F)F)[nH]c2ccc(Cl)cc2c1=O`: the survival was inactive: 77%. Take `CC(C)c1ccc(CNC(=O)c2ccc(N3CCCC3)c(NC(=O)NCc3ccc(F)cc3)c2)cc1`: the survival was active: 47%. In the case of `CCOC(=O)C1CCN(C(c2ccc(C)cc2)c2sc3nc(-c4ccco4)nn3c2O)CC1` (stereo not drawn) it was inactive: 87%; in that of `CCOc1ccc(/C=C(\C#N)C(=O)Nc2sc3c(c2C(=O)OC)CCC3)cc1OC`, inactive: 133%; in that of `Cc1cccc(Nc2cc(C)nc3nc(-c4ccccc4)nn23)c1`, inactive: 95%. Turning to `CCOC(=O)C1CCCN(CCC(=O)Nc2ccc(Br)c(C)c2)C1` (stereo not drawn), the survival is inactive: 87%.

Consider `N#Cc1c(-n2ncnc2-c2ccccc2Cl)sc2c1CCCCC2`, for which the survival was active: 26%.

Turning to `Cc1cc(C)c(OCC(=O)N/N=C/c2ccc(O)cc2O)c(Br)c1`, the survival is inactive: 59%. With `O=C(CCC1N=C2c3ccccc3N=C(SCc3ccc(F)cc3)N2C1=O)N1CCN(c2ccccc2)CC1` (stereo not drawn), the survival was inactive: 57%.

For `COc1ccc(N2CCN(C(=O)CCCCn3c(=O)[nH]c4ccsc4c3=O)CC2)cc1`, the survival is inactive: 133%. For the compound `CCOC(=O)c1ccc(N2C(=O)c3n[nH]c(-c4cccs4)c3C2c2cccc(O)c2)cc1` (stereo not drawn), the survival was active: -5%.

As to `Clc1ccc(-c2nc3ncccn3c2Nc2ccc3c(c2)OCCO3)cc1`, the survival is inactive: 89%. Turning to `Cc1cccc(NC(=O)CC2C(=O)OCCN2Cc2ccccc2)c1` (stereo not drawn), the survival is inactive: 177%. The same measure for `CCc1ccc(NCc2cc3cc(OC)c(OC)cc3n(CC(=O)Nc3ccc(F)cc3)c2=O)cc1`: inactive: 70%; for `CC(C)(C)C(=O)Nc1ccc2nc(SCc3ccccc3)sc2c1`: inactive: 70%; for `CC1=C(c2ccc(F)cc2)S(=O)(=O)NC1=NCc1ccccc1Cl`: inactive: 107%. As to `COc1ccc2cc(CNc3ccccc3)c(=O)n(CC(=O)Nc3ccc(C(C)=O)cc3)c2c1`, the survival was inactive: 68%. As to `Cc1ccccc1C(=O)NC(=O)Nc1ccc(-n2nc(C(F)(F)F)cc2C(F)(F)F)cc1`, the survival was inactive: 69%.

Take `COc1cccc(CNC(=O)CCn2c(=O)c3cccn3c3cccnc32)c1`: the survival is inactive: 82%.

As for `CCC(=O)N1CCc2cc(S(=O)(=O)NC(Cc3ccccc3)C(=O)NCc3cccc(OC)c3)ccc21` (stereo not drawn), the survival was inactive: 64%. Take `COc1ccc(-c2cn3nc(N4CCCC(C(=O)NCCCOC(C)C)C4)sc3n2)cc1` (stereo not drawn): the survival is inactive: 69%.

With `NCC1Cc2ccccc2O1` (stereo not drawn), the survival is inactive: 103%. In the case of `Cc1ccc2c(c1)c1c(c(=O)n(-c3ccccc3C)c(=O)n1Cc1cccc(F)c1)n2C`, the survival was inactive: 104%.

Take `Cc1ccc(Cl)cc1NC(=O)C(NS(=O)(=O)c1ccc2c(c1)CCC(=O)N2)c1ccccc1` (stereo not drawn): the survival is inactive: 71%. For `CC1=C(C(=O)Nc2ccc(C)cc2C)C(c2cccs2)n2nc(SCc3ccc(Cl)cc3)nc2N1` (stereo not drawn), the survival was inactive: 88%. With `Cc1cc(Oc2nc3ccccn3c(=O)c2/C=C(\C#N)c2nc3ccccc3s2)ccc1Cl`, the survival is inactive: 63%. The same measure for `COc1ccc(-c2csc3ncnc(Nc4cccc(F)c4)c23)cc1`: active: 0%.

Take `CC(=O)c1ccc(NC(=O)CC2Sc3ccccc3NC2=O)cc1` (stereo not drawn): the survival is inactive: 55%. For the compound `Cc1ccc(CSc2nc3cccnc3n2Cc2ccc(C(=O)NCc3cccs3)cc2)cc1`, the survival is inactive: 73%. The same measure for `Cc1ccc(Nc2nc(C(N)=O)c(NC(=O)c3ccccc3Br)s2)cc1`: inactive: 78%; for `Cc1ccc(NC(=O)C2CCN(C(=O)c3cnn(-c4ccccc4)c3-n3cccc3)CC2)cc1Cl`: inactive: 61%. `CCCN(CCC)c1cc(C)nc2nc(-c3ccc(Cl)cc3)nn12`: the survival was inactive: 52%.

Consider `Cc1ccc(C(=O)CSc2nc(-c3ccccc3)nc3c2CCCC3)cc1C`, for which the survival is active: 15%. For the compound `COc1ccc(-n2nnnc2SCC(=O)N2CCCCC2C)cc1` (stereo not drawn), the survival is inactive: 92%.

As for `CCOC(=O)c1ccc(NC(=O)c2sc3nc4n(c(=O)c3c2C)CCC4)cc1`, the survival is inactive: 116%. For `CCN1C(C(=O)c2ccccc2)=C(NC(=O)c2ccc(Cl)cc2)c2ccccc2S1(=O)=O`, the survival is inactive: 91%. As for `O=C(NCc1ccccc1)N(Cc1cccnc1)Cc1cc2cc3c(cc2[nH]c1=O)OCCO3`, the survival was inactive: 104%. `CC(CNC(=O)Cn1c(-c2cccs2)cc2cc(Cl)ccc21)c1ccccc1` (stereo not drawn): the survival is inactive: 83%.

As to `ON(Cn1nnc2ccccc21)Cn1nnc2ccccc21`, the survival is inactive: 102%.

Take `COCC(C)NS(=O)(=O)c1ccc(N2CCCCS2(=O)=O)cc1` (stereo not drawn): the survival was inactive: 87%. In the case of `COc1cccc(NC(=O)c2oc3ccccc3c2NC(=O)c2ccc(OC(C)C)cc2)c1`, the survival is inactive: 62%. The same measure for `COc1ccc2c(CNCCc3ccco3)c(C(=O)O)n(Cc3ccc(F)cc3)c2c1`: inactive: 66%; for `CCn1cc(C(=O)NCc2ccc(Cl)cc2)c(=O)c2cc(S(=O)(=O)N3CCc4ccccc4C3)ccc21`: inactive: 64%.

On to `Cc1ccc2c(CC(=O)Nc3c(C(=O)c4ccc(F)cc4)oc4ccccc34)coc2c1C`, for which the survival was inactive: 90%. In the case of `CC(C)c1ccc(NC(=O)C(Cc2ccccc2)n2cccc2)cc1` (stereo not drawn), the survival was active: 23%.

Take `CCOc1ccc(NC(=O)Cn2c(=O)n(CC(=O)NCCc3ccccc3)c(=O)c3sccc32)cc1`: the survival was inactive: 71%. As to `Cc1ccc(C)c(S(=O)(=O)c2cn(Cc3ccccc3)c3cc(N4CCCC4)c(F)cc3c2=O)c1`, the survival was inactive: 97%.

Regarding `CC(=O)N1CCCc2cc(S(=O)(=O)Nc3ccc(OC(F)(F)F)cc3)ccc21`, the survival is inactive: 79%. In the case of `Cc1ccc(-n2ccn(CC(=O)c3ccc(F)cc3)c(=O)c2=O)cc1C` it was inactive: 69%.

Consider `COc1cccc(C(=O)NCCc2sc(-c3cccc(C)c3)nc2C)c1`, for which the survival was inactive: 83%. In the case of `Cc1cccc(C)c1NC(=O)c1cc(S(=O)(=O)N2CCCc3ccccc32)ccc1F` it was inactive: 125%; in that of `COc1ccccc1C(=O)Nc1ccccc1C(=O)OCc1cc(=O)n2c(C)csc2n1`, inactive: 126%. The same measure for `COC(=O)c1ccc(NC(=O)CC2C(=O)N(c3cccc(C)c3)C(=O)N2Cc2ccco2)cc1` (stereo not drawn): inactive: 92%; for `CCOC(=O)c1c(C)oc2nc(C)nc(NCCCN3CCN(c4ccccc4OC)CC3)c12`: inactive: 81%. With `Cc1nn(C)c2c1c(-c1ccccc1)cc(=O)n2Cc1ccc(Br)cc1F`, the survival was inactive: 94%. The same measure for `O=C(c1cc2ccccc2oc1=O)N1CCCC1`: inactive: 101%. On to `COc1cccc(C(=O)Nc2nc3nc(C)c(Cc4ccccc4)c(=O)n3[nH]2)c1`, for which the survival is inactive: 104%.

For `COc1ccccc1NC(=O)C1=C(C)NC2=C(C(=O)CCC2)C1c1cc2c(cc1Br)OCO2` (stereo not drawn), the survival is active: 44%. Consider `Cc1cccc(N2C(=O)C(CC(=O)Nc3ccccc3)N(C3CCCCC3)C2=O)c1` (stereo not drawn), for which the survival was inactive: 80%. As to `CCOC(=O)c1c(C)[nH]c(C)c1S(=O)(=O)N(C)CC(=O)N1CCN(c2cccc(C)c2C)CC1`, the survival was inactive: 84%. In the case of `COc1cccc(CNC(=O)C2CCCN(S(=O)(=O)c3ccc4c(ccn4C)c3)C2)c1OC` (stereo not drawn), the survival was inactive: 101%. For `O=C(Cn1c(=O)n(CCCS(=O)(=O)C2CCCCC2)c(=O)c2ccccc21)Nc1ccccc1F`, the survival was inactive: 83%.

`Cc1nn2c3c(cnc2c1-c1ccc(F)cc1)C(=O)CC(c1ccccc1)C3` (stereo not drawn): the survival is inactive: 66%.

`Cc1cc(C(=O)Nc2cccc(C(F)(F)F)c2)c2c(C)nn(-c3cccc(F)c3)c2n1`: the survival was active: 17%.

For `O=S(=O)(NCCc1csc2nc(-c3ccc(F)cc3)nn12)c1ccc2c(c1)OCCO2`, the survival is inactive: 119%. As for `CC(=O)Nc1ccc(NC(=O)CC(C)n2ccc(C)n2)cc1` (stereo not drawn), the survival was active: 52%. Turning to `CCCN1CCN(CCNC(=O)Nc2cc(Cl)c(OC)cc2OC)CC1`, the survival is inactive: 69%. For `Cc1cc(C)c(-c2csc(-c3cc4ccccc4oc3=O)n2)cc1C`, the survival was active: 31%.

For `Cc1ccc(OCC(=O)N(Cc2ccc(N(C)C)cc2)CC2CCCO2)cc1C` (stereo not drawn), the survival was inactive: 59%. On to `COc1ccc(-c2cc(C(F)(F)F)nc(SCC(=O)N3CCCCC3)n2)cc1`, for which the survival is inactive: 74%.
